Measurements as given in patent publication US6544989B2, “Benzazoles: benzoxazole, benzthiazole and benzimidazole derivatives” (Syngenta Limited, priority 1998, dated 2003).

Tests used:
Conditions in all cases: 500 ppm by weight; mortality assessed usually between three and five days after treatment
Myzus persicae = assay: Pesticidal test, Myzus persicae mortality
Description: (§1) The test procedure adopted with regard to each pest, except nematodes, was essentially the same and composed supporting a number of the pests on a medium which was usually a substrate, a host plant or a foodstuff on which the pests feed, and treating either or both the medium and the pests with a composition. Pest mortality was assessed usually between three and five days after treatment Knockdown of housefly (Musca domestica) was assessed 15 minutes after treatment

Heliothis virescens = test system: Heliothis virescens
Description: as §1

Tetranychus urticae = test system: Tetranychus urticae
Description: as §1

Musca domestica = test system: Musca domestica
Description: as §1

Row | Structure (SMILES) | MYZUPE = Myzus persicae, grading of mortality (score) (Myzus persicae) | HELIVI = Heliothis virescens, grading of mortality (score) (Heliothis virescens) | TETRUR = Tetranychus urticae, grading of mortality (score) (Tetranychus urticae) | MUSCDO AK = Musca domestica (kill), grading of mortality (score) (Musca domestica)
1 | Cc1nsc(NC(=O)Cc2ccc3oc(C(C)Cl)nc3c2)c1Cl (racemic) [93(A3)] | 0 (0 indicates less than 40% mortality) | 0 (0 indicates less than 40% mortality) | 0 (0 indicates less than 40% mortality) | –
2 | CCC(Cl)c1nc2cc(CC(=O)Nc3snc(C)c3Cl)ccc2o1 (racemic) [95(A3)] | 9 (9 indicates 80-100% mortality) | 0 (0 indicates less than 40% mortality) | 0 (0 indicates less than 40% mortality) | –
3 | Cc1nsc(NC(=O)Cc2ccc3oc(C(C)C#N)nc3c2)c1Cl (racemic) [115(A3)] | 5 (5 indicates 40-79% mortality) | 0 (0 indicates less than 40% mortality) | 0 (0 indicates less than 40% mortality) | –
4 | Cc1nc2cc(CC(=O)Nc3snc(C)c3Br)ccc2o1 [2(A4)] | 5 (5 indicates 40-79% mortality) | 0 (0 indicates less than 40% mortality) | 0 (0 indicates less than 40% mortality) | 5 (5 indicates 40-79% mortality)
5 | Cc1nc2cc(CC(=O)Nc3snc(C)c3C#N)ccc2o1 [2(A5)] | 5 (5 indicates 40-79% mortality) | 0 (0 indicates less than 40% mortality) | 0 (0 indicates less than 40% mortality) | –
6 | CCc1nsc(NC(=O)Cc2ccc3oc(C)nc3c2)c1Cl [2(A8)] | 5 (5 indicates 40-79% mortality) | 0 (0 indicates less than 40% mortality) | 0 (0 indicates less than 40% mortality) | –
7 | CCCc1nc2cc(CC(=O)Nc3snc(C)c3Cl)ccc2s1 [4(A13)] | 9 (9 indicates 80-100% mortality) | 0 (0 indicates less than 40% mortality) | 9 (9 indicates 80-100% mortality) | 9 (9 indicates 80-100% mortality)
8 | CCCC(C)c1nc2cc(CC(=O)Nc3snc(C)c3Cl)ccc2o1 (centres unmarked) [12(A3)] | 5 (5 indicates 40-79% mortality) | 0 (0 indicates less than 40% mortality) | 5 (5 indicates 40-79% mortality) | –
9 | Cc1nsc(NC(=O)Cc2ccc3oc(CC(C)(C)C)nc3c2)c1C#N [15(A5)] | 0 (0 indicates less than 40% mortality) | 0 (0 indicates less than 40% mortality) | 5 (5 indicates 40-79% mortality) | –
10 | CCc1nsc(NC(=O)Cc2ccc3oc(CC(C)(C)C)nc3c2)c1Cl [15(A8)] | 9 (9 indicates 80-100% mortality) | 5 (5 indicates 40-79% mortality) | 9 (9 indicates 80-100% mortality) | –
11 | Cc1nsc(N(CC(F)(F)F)C(=O)Cc2ccc3oc(CC(C)(C)C)nc3c2)c1Cl [15(H3)] | 9 (9 indicates 80-100% mortality) | 0 (0 indicates less than 40% mortality) | 0 (0 indicates less than 40% mortality) | –
12 | Cc1nsc(NC(=O)Cc2ccc3oc(C4CC4)nc3c2)c1Cl [21(A3)] | 5 (5 indicates 40-79% mortality) | 0 (0 indicates less than 40% mortality) | 0 (0 indicates less than 40% mortality) | –
13 | Cc1nsc(NC(=O)Cc2ccc3oc(C4(C)CCCCC4)nc3c2)c1Cl [36(A3)] | 5 (5 indicates 40-79% mortality) | 0 (0 indicates less than 40% mortality) | 9 (9 indicates 80-100% mortality) | –
14 | Cc1nsc(NC(=O)Cc2ccc3oc(CC4CCCC4)nc3c2)c1Cl [42(A3)] | 5 (5 indicates 40-79% mortality) | 0 (0 indicates less than 40% mortality) | 9 (9 indicates 80-100% mortality) | –
15 | Cc1nsc(NC(=O)Cc2ccc3oc(C(F)(F)F)nc3c2)c1Cl [75(A3)] | 9 (9 indicates 80-100% mortality) | 0 (0 indicates less than 40% mortality) | 0 (0 indicates less than 40% mortality) | –
16 | Cc1nsc(NC(=O)Cc2ccc3oc(C(F)(F)C(F)F)nc3c2)c1Cl [79(A3)] | 0 (0 indicates less than 40% mortality) | 5 (5 indicates 40-79% mortality) | 0 (0 indicates less than 40% mortality) | –

Row | Structure (SMILES) | MYZUPE = Myzus persicae, grading of mortality (score) (Myzus persicae) | HELIVI = Heliothis virescens, grading of mortality (score) (Heliothis virescens) | TETRUR = Tetranychus urticae, grading of mortality (score) (Tetranychus urticae) | MUSCDO AK = Musca domestica (kill), grading of mortality (score) (Musca domestica)
17 | Cc1nsc(NC(=O)Cc2ccc3oc(C(F)(F)C(F)(F)Cl)nc3c2)c1Cl [86(A3)] | 5 (5 indicates 40-79% mortality) | 0 (0 indicates less than 40% mortality) | 5 (5 indicates 40-79% mortality) | –
18 | COCc1nc2cc(CC(=O)Nc3snc(C)c3Cl)ccc2o1 [130(A3)] | 9 (9 indicates 80-100% mortality) | 0 (0 indicates less than 40% mortality) | 5 (5 indicates 40-79% mortality) | –
19 | Cc1nsc(NC(=O)Cc2ccc3oc(CSc4ccccc4)nc3c2)c1Cl [173(A3)] | 0 (0 indicates less than 40% mortality) | 0 (0 indicates less than 40% mortality) | 0 (0 indicates less than 40% mortality) | –
20 | Cc1nsc(NC(=O)Cc2ccc3oc(Cc4c(F)c(F)c(F)c(F)c4F)nc3c2)c1Cl [239(A3)] | 9 (9 indicates 80-100% mortality) | 0 (0 indicates less than 40% mortality) | 0 (0 indicates less than 40% mortality) | –
21 | Cc1nsc(NC(=O)Cc2ccc3oc(-c4c(Cl)cc(C(F)(F)F)cc4Cl)nc3c2)c1Cl [244(A3)] | 0 (0 indicates less than 40% mortality) | 0 (0 indicates less than 40% mortality) | 0 (0 indicates less than 40% mortality) | –
22 | Cc1nsc(NC(=O)Cc2ccc3oc(C(c4ccccc4)c4ccccc4)nc3c2)c1Cl [246(A3)] | 0 (0 indicates less than 40% mortality) | 0 (0 indicates less than 40% mortality) | 0 (0 indicates less than 40% mortality) | –
23 | Cc1nsc(NC(=O)Cc2ccc3oc(-c4ccccc4Cl)nc3c2)c1Cl [253(A3)] | 5 (5 indicates 40-79% mortality) | 0 (0 indicates less than 40% mortality) | 0 (0 indicates less than 40% mortality) | –
24 | Cc1nsc(NC(=O)Cc2ccc3oc(-c4ccc([N+](=O)[O-])cc4Cl)nc3c2)c1Cl [267(A3)] | 5 (5 indicates 40-79% mortality) | 0 (0 indicates less than 40% mortality) | 0 (0 indicates less than 40% mortality) | –
25 | Cc1nsc(NC(=O)Cc2ccc3oc(-c4ccccc4F)nc3c2)c1Cl [272(A3)] | 0 (0 indicates less than 40% mortality) | 0 (0 indicates less than 40% mortality) | 0 (0 indicates less than 40% mortality) | –
26 | Cc1nsc(NC(=O)Cc2ccc3oc(-c4c(F)c(F)c(F)c(F)c4F)nc3c2)c1Cl [287(A3)] | 0 (0 indicates less than 40% mortality) | 0 (0 indicates less than 40% mortality) | 0 (0 indicates less than 40% mortality) | –
27 | COc1ccccc1-c1nc2cc(CC(=O)Nc3snc(C)c3Cl)ccc2o1 [305(A3)] | 0 (0 indicates less than 40% mortality) | 0 (0 indicates less than 40% mortality) | 0 (0 indicates less than 40% mortality) | –
28 | Cc1nsc(NC(=O)Cc2ccc3oc(-c4cccs4)nc3c2)c1Cl [330(A3)] | 0 (0 indicates less than 40% mortality) | 0 (0 indicates less than 40% mortality) | 0 (0 indicates less than 40% mortality) | –
29 | Cc1nsc(NC(=O)Cc2ccc3oc(Cc4cccs4)nc3c2)c1Cl [334(A3)] | 0 (0 indicates less than 40% mortality) | 0 (0 indicates less than 40% mortality) | 0 (0 indicates less than 40% mortality) | –
30 | Cc1nsc(NC(=O)Cc2ccc3oc(-c4cccnc4Cl)nc3c2)c1Cl [343(A3)] | 5 (5 indicates 40-79% mortality) | 0 (0 indicates less than 40% mortality) | 0 (0 indicates less than 40% mortality) | –
31 | Cc1nsc(NC(=O)Cc2ccc3oc(-c4ccno4)nc3c2)c1Cl [349(A3)] | 0 (0 indicates less than 40% mortality) | 0 (0 indicates less than 40% mortality) | 0 (0 indicates less than 40% mortality) | –
